# Reference: PubChem BioAssay AID1347055 (National Center for Advancing Translational Sciences (NCATS), 2019)
# The campaign covered roughly 54,000 compounds. About 120 (0.22%) were called active. This list was built around the results that the source calls inconclusive (neither active nor inactive); the mix of calls is not that of the screen. Calls follow the shape of the dose curve; as a rule, active = well fitted inhibition curve with a large enough effect; inconclusive = small, poorly fitted or top-dose-only effect, or effect the other way; inactive = flat fitted curve, though single readings scatter. Potencies of inconclusive entries are left out as doubtful fits.
# Target: Fumarate hydratase, mitochondrial (Homo sapiens) (UniProt P07954)
# Experiment: Identification of activators of human fumarate hydratase by quantitative high-throughput screening; also: the screen sought activators but most active calls are inhibition curves; nearly all actives have a fitted effect of over 45% in size
# Conditions: FH coupled MDH/diaphorase resazurin fluorescence, 15 min; activity change, negative = inhibition: at 79.9 µM (top of the series)
# % is scaled to controls: 0 for no effect and ±100 for the full control effect; potency is read from the fitted curve at half-maximal effect; tags tell the direction and shape of the fitted curve.
SMILES,Potency,"activity change, negative = inhibition"
COc1ccc(OC)c(CC2C(=O)Nc3ccc(Br)cc32)c1 (stereo not given),"inconclusive [inhibitor, single point]",
O=C(COc1ccc(F)cc1)Nc1ccc2nc(SCCOc3ccccc3)sc2c1,,inactive: -8.09%
CCOC(=O)c1c(C)[nH]c(C)c1S(=O)(=O)N1CCC(C(=O)NCc2cccc(OC)c2)CC1,"inconclusive [inhibitor, partial curve, poor fit]",
O=C(NCCCN1CCN(c2cccc(Cl)c2)CC1)c1cnn(-c2ccc(F)cc2)c1-n1cccc1,"inconclusive [inhibitor, partial curve, poor fit]",
COc1ccc(CNC(=O)c2cnn3c(C)c(Cc4c(F)cccc4Cl)c(C)nc23)cc1,"inconclusive [inhibitor, single point]",
COc1cc(NC(=O)c2cc(-c3cccc(OC)c3)n[nH]2)cc(OC)c1,"inconclusive [inhibitor, single point]",
CCc1cccc(NC(=O)CN(C)S(=O)(=O)c2ccc3[nH]c4c(c3c2)CCCC4)c1,"inconclusive [inhibitor, partial curve, poor fit]",
Fc1ccc(-n2ncc3c(NC4CCCCCC4)ncnc32)cc1,,inactive: -34.6%
CCOC(=O)c1c(C)oc2nc(C)nc(NCCCN3CCN(c4ccccc4)CC3)c12,"inconclusive [inhibitor, single point]",
Oc1cc2c(cc1O)C(c1ccccc1)CNCC2 (stereo not given),"inconclusive [inhibitor, partial curve]",
CCOc1ccc(NC(=O)C(CC)n2c(=O)c(-c3ccccc3NC(C)=O)nc3ccccc32)cc1 (stereo not given),"inconclusive [inhibitor, partial curve, poor fit]",
CC1=CC(=O)[C@]2(O[C@@H]3O[C@@H](C)[C@H](O)[C@@H](O)[C@H]3O)C=CO[C@@H](O[C@@H]3O[C@H](CO)[C@@H](O)[C@H](O)[C@H]3O)[C@H]12,,inactive: -1.85% [at 53.3 µM]
CN(C)C/C=C/C(=O)Nc1cccc(C(=O)Nc2cccc(Nc3ncc(Cl)c(-c4c[nH]c5ccccc45)n3)c2)c1,,inactive: 11.5%
COc1cc(OC)c(NC(=O)N2CCSc3ccccc32)cc1Cl,"inconclusive [inhibitor, single point]",
C[C@@]1(C2CCCC2)Cc2cc(OCC(=O)O)c(Cl)c(Cl)c2C1=O,"inconclusive [inhibitor, partial curve, poor fit]",
COc1ccccc1N1CCN(c2ccc(NC(=O)c3ccc(C)cc3)cc2C(=O)O)CC1,,inactive: -10%
Cc1ccc(C)c(NS(=O)(=O)c2ccc3c4c(cccc24)C(=O)N3)c1,"inconclusive [inhibitor, partial curve, poor fit]",
O=C(CSc1nnc(CNC(=O)c2c(F)cccc2Cl)o1)Nc1ccccc1F,,inactive: 3.53%
Cc1nc(-n2nc(C)c(Cc3ccccc3Cl)c2C)sc1C(=O)N1CCCCC1C (stereo not given),"inconclusive [inhibitor, partial curve]",
Cc1ccc(NC(=O)CS(=O)(=O)c2nc(-c3ccc(C)cc3)cn2-c2ccc(C)cc2)cc1,"inconclusive [inhibitor, full curve]",
CCOc1ccccc1NC(=O)CN1C(=O)CC(c2ccco2)Sc2ccccc21 (stereo not given),"inconclusive [inhibitor, full curve, poor fit]",
CCOC(=O)N1CCC(CN(Cc2ccc(Cl)cc2)Cc2ccc([N+](=O)[O-])s2)C1 (stereo not given),,inactive: -5.44%

SMILES,Potency,"activity change, negative = inhibition"
CC1CCC(n2c3cnccc3c3cnc(Nc4ccc5c(n4)CCN(C(=O)CO)C5)nc32)CC1 (stereo not given),,inactive: -3.54%
COc1ccccc1Nc1nn2c(=O)c3ccc(C(=O)NCc4cccs4)cc3nc2s1,,inactive: 0.0928%
COc1ccc(N2CCN(C(=O)c3ccc(C)c(NC(=O)c4nsc5ccccc45)c3)CC2)cc1,"inconclusive [inhibitor, partial curve, poor fit]",
O=C(Nc1cc(Cl)cc(Cl)c1)c1ccc(F)c(S(=O)(=O)NC2CCCC2)c1,,inconclusive: -43.9% [inhibitor]
COCCN1C(=O)c2[nH]nc(-c3ccccc3O)c2C1c1ccc(OCc2ccccc2)c(OC)c1 (stereo not given),"inconclusive [inhibitor, single point]",
COc1cc(CCc2ccc(OCC=C(C)C)cc2)cc(OC)c1OC,,inactive: -2.33% [at 53.3 µM]
CCCCc1ccc(-n2nc3cc(C)c(NC(=O)Cc4ccccc4)cc3n2)cc1,,inactive: 3.1%
Nc1n[nH]c(N)c1N=Nc1ccc(O)cc1,,inactive: -14.6%
O=c1[nH]cnc2nc[nH]c12,,inactive: -1.64% [at 53.3 µM]
CC(=O)Nc1ccc(S(=O)(=O)NC2(C(F)(F)F)NC(=O)N(c3ccc(C)cc3)C2=O)cc1 (stereo not given),"inconclusive [inhibitor, partial curve, poor fit]",
CC(C)(C)c1ccc(O)c(O)c1,active: 39.9 µM,
CCc1ccc(NC(=O)c2ccc(F)c(S(=O)(=O)N3CCC(C)CC3)c2)cc1,,inactive: 3.68%
Cc1ccc(CNC(=O)c2ccc(CSCc3ccc(Cl)cc3)o2)cc1,"inconclusive [inhibitor, partial curve, poor fit]",
CCOC(=O)c1ccc(NC(=O)C(CC)Sc2nc3ncccc3[nH]2)cc1 (stereo not given),"inconclusive [inhibitor, single point]",
CCC(=O)N1c2ccc(S(=O)(=O)NCc3cccc(OC)c3)cc2CC1C (stereo not given),,inactive: -8.61%
CCCCN(CC)CCNC(=O)c1cc2c(-c3ccc(Cl)cc3)nn(C)c2s1,,inactive: -11.7%
COc1cc(NC(=O)CCc2c(C)nc3nc(-c4cc(OC)cc(OC)c4)nn3c2C)cc(OC)c1,"inconclusive [inhibitor, single point]",
COc1ccc(OC)c(NC(=O)c2c(NCc3ccc(C)o3)sc3c2CCC(C)C3)c1 (stereo not given),"inconclusive [inhibitor, partial curve, poor fit]",
CCc1cccc(C)c1NC(=O)c1cc(C)nc2c1c(C)nn2-c1cccc(Cl)c1C,"inconclusive [inhibitor, single point]",
Cc1cccc(C(=O)NCCc2sc(-c3ccccc3)nc2C)c1,,inactive: -8.15%
COc1ccc(NC(=O)N2CCc3c([nH]c4ccc(OC)cc34)C2c2ccc(OC)cc2)cc1 (stereo not given),"inconclusive [inhibitor, single point]",
CCCCc1oc2ccc(NS(C)(=O)=O)cc2c1C(=O)c1ccc(OCCCN(CCCC)CCCC)cc1,"inconclusive [inhibitor, single point]",

SMILES,Potency,"activity change, negative = inhibition"
Cc1ccc(-c2nc(CS(=O)(=O)CC(=O)NC(C)CCc3ccccc3)c(C)o2)cc1 (stereo not given),"inconclusive [inhibitor, single point]",
CNC(=O)C1CCCN(c2nnc(C)c3c(C)n(-c4ccccc4)nc23)C1 (stereo not given),"inconclusive [inhibitor, single point]",
CCOC(=O)C1CCN(c2cc3c(cc2NC(=O)c2ccccc2Cl)n(C)c(=O)n3C)CC1,"inconclusive [inhibitor, single point]",
COCCNS(=O)(=O)c1cc(-c2nn3c(C)nnc3c3ccccc23)ccc1C,,inactive: -5.96%
COc1cccc(C(=O)Nc2nc(-c3nnn(-c4cc(C)ccc4C)c3C)ns2)c1,,inactive: -7.39%
COc1ccc(S(=O)(=O)c2cc3cc(C(C)(C)C)cc(O)c3oc2=O)cc1,"inconclusive [inhibitor, partial curve]",
O=c1c2sc3ccccc3c2n(Cc2cccc(C(F)(F)F)c2)c(=O)n1-c1ccccc1,"inconclusive [inhibitor, partial curve, poor fit]",
FC(F)(F)c1cccc(N2CCN(c3nc4ccccc4n4cnnc34)CC2)c1,"inconclusive [inhibitor, single point]",
COc1ccc(CNC(=O)C2CCN(C(=O)c3cnn(-c4ccccc4)c3-n3cccc3)CC2)cc1,,inactive: -0.0993%
COc1ccc(Cl)cc1NC(=O)Nc1cc(C)nc2ccccc12,"inconclusive [inhibitor, single point]",
Cc1ccc(OCC(=O)NCC(=O)OCc2cc(=O)n3nc(CC(C)C)sc3n2)cc1,"inconclusive [activator, single point]",
O=C(c1c(F)ccc(NS(=O)(=O)N2CC[C@@H](F)C2)c1F)c1c[nH]c2ncc(-c3cnc(C4CC4)nc3)cc12,"inconclusive [inhibitor, partial curve, poor fit]",
CCCC(=O)N1c2ccccc2-c2nnc(SC)nc2OC1c1sccc1C (stereo not given),,inconclusive: -30.3% [inhibitor]
Cc1ccc(NC(=O)c2ccc3c(O)c(S(=O)(=O)c4ccc(Cl)cc4)c(=O)[nH]c3c2)cc1,"inconclusive [inhibitor, partial curve, poor fit]",
CCCCn1c(SCc2ccccc2C)nc2ccsc2c1=O,"inconclusive [inhibitor, single point]",
COc1ccc(CNC(=O)CC(C)CC2=NS(=O)(=O)c3ccccc3N2)cc1 (stereo not given),,inactive: 5.11%
O=S(=O)(NCCc1csc(-c2cccc(F)c2)n1)c1cc(F)ccc1F,,inactive: -20.4%
Oc1ccccc1-c1nc2cnccn2c1Nc1ccc(Cl)cc1,"inconclusive [inhibitor, partial curve]",
Cc1nc2c(-c3cnc(N)nc3)nc(N3CCOCC3)nc2n1C(C)C,,inactive: -2.18%
C=C1/C(=C/C=C2\CCC[C@@]3(C)C2CCC3[C@H](C)/C=C/[C@@H](O)C2CC2)C[C@@H](O)C[C@@H]1O (stereo not given in full),,inactive: -23.2%
COc1ccc(-c2ccc(NS(=O)(=O)c3cc(C)c(C)cc3C)cc2)nn1,"inconclusive [inhibitor, partial curve]",
